Here are results for three molecules from patent publication US20190002581A1 (SUTRO BIOPHARMA, published 2019).

In assay [1] the target is T1, human EpCAM expressed on cells (stably transfected CHO cells, HCT-116, JIMT1) (human, UniProt P16422 24-314).
T1 construct: also called Human EpCAM (CHO); Human EpCAM (HCT-116)
T1 sequence: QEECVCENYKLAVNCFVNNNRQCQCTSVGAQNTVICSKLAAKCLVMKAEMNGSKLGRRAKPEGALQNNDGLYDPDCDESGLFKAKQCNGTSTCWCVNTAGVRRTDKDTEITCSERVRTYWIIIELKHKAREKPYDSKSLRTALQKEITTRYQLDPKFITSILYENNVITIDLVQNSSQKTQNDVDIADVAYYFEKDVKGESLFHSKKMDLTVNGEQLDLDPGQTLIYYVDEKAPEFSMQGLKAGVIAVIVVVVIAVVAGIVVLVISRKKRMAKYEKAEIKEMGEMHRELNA
The assay can be described thus: flow cytometry, JIMT1 cells. On the procedure:
(§1) CHO-k cells were transfected to stably express EpCAM on the cell surface. CHO parental and stably transfected CHO-EpCAM (human, cynomolgus and mouse EpCAM-expressing cells) cells were washed with DPBS, detached with Accutase™ (BD Biosciences; San Jose, Calif.), and resuspended in ice-cold FACS buffer (DPBS buffer supplemented with 0.5% bovine serum albumin).
(§2) A total of 200,000 cells per 96-well were incubated on ice for 60 mins with 100 nM of test antibodies diluted in FACS buffer. Cells were washed twice with FACS buffer and incubated on ice for 30 mins with R-phycoerythrin AffiniPure F(ab′)₂ fragment, goat anti-Human IgG, Fcγ fragment specific secondary detection antibody (Jackson ImmunoResearch Laboratories, West Grove, Pa.) diluted at 1:200 with FACS buffer. Cells were washed twice with FACS buffer, fixed in 4% paraformaldehyde in PBS (Santa Cruz Biotechnology; Dallas, Tex.) for 20 mins on ice in the dark, washed twice with FACS buffer and analyzed using the BD LSR II Flow Cytometer (BD Biosciences; San Jose, Calif.). Data were analyzed using FlowJo (FlowJo, LLC; Ashland, Oreg.) to determine mean fluorescence intensities. Binding constants were calculated using the statistical software, GraphPad Prism (GraphPad Software; La Jolla, Calif.) using the nonlinear regression equation, one site-specific binding with Hill slope. Secondary antibody alone was used as a control, in addition to measuring non-specific EpCAM antibody binding to CHO parental cells. For some variants, binding to human tumor cells, HCT 116 and JIMT1 cells were also evaluated.

In assay [2] the target is T1, human EpCAM expressed on cells (stably …). The assay is described as follows: flow cytometry, HCT-116 cells. As to the method: as §1, §2
Assay [3] shares this target. The assay is described as follows: flow cytometry, CHO cells expressing human EpCAM.
The target in assay [4] is T2, human EpCAM protein adsorbed on the plate (ELISA) (human, UniProt P16422 24-265).
T2 construct: also called Human EpCAM (ELISA); recombinant human EpCAM extracellular domain (ECD)
T2 sequence: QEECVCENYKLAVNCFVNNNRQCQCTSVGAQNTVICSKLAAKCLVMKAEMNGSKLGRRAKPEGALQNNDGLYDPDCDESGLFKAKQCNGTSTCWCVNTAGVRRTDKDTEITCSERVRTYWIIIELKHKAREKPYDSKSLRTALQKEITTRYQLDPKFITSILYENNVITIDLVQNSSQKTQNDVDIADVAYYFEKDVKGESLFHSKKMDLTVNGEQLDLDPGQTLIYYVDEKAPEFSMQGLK
The assay is described as follows: ELISA, human EpCAM adsorbed on plate, anti-human Fc-HRP. The text has this: (§3) The “EC₅₀” value is the concentration of the antibody at which half-maximum signal is achieved in an ELISA assay where EpCAM protein is adsorbed onto a plate and then bound by the respective antibody provided herein. The anti-EpCAM antibody is detected with horseradish peroxidase (HRP)-conjugated anti-human Fc antibody.

Assay [5] addresses T3, human EpCAM-His (analyte of the Biacore experiments) (human, UniProt P16422 24-265).
T3 construct: also called Human EpCAM (Biacore); hEpCAM
T3 sequence: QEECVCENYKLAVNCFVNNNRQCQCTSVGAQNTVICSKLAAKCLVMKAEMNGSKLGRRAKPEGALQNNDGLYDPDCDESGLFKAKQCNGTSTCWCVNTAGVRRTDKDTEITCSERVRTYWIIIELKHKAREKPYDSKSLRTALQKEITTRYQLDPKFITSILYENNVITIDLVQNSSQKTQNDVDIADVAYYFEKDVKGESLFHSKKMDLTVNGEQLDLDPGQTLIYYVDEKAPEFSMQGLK
The assay can be described thus: SPR (Biacore), scFv-Fc captured on anti-FLAG, human EpCAM-His as analyte, 25 C. An outline of the steps:
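Anti-FLAG-captured scFv-Fc antibodies probed by Biacore at 25 °C in HBS-EP+; EpCAM-His flowed at 50, 25, 12.5, 6.25 and 0 nM (180 s association, 600 s dissociation, 50 μl/min), glycine pH 2.0 regeneration. KD from ratio of rate constants via 1:1 Langmuir fit.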

Assay [6] concerns the target T4, cynomolgus EpCAM protein adsorbed on the plate (ELISA) (cynomolgus monkey, UniProt Q1WER1 26-265 (rhesus entry), limits assumed).
T4 construct: Construct used for the cyno ELISA is not described; also called Cyno EpCAM (ELISA); cEpCAM
T4 sequence: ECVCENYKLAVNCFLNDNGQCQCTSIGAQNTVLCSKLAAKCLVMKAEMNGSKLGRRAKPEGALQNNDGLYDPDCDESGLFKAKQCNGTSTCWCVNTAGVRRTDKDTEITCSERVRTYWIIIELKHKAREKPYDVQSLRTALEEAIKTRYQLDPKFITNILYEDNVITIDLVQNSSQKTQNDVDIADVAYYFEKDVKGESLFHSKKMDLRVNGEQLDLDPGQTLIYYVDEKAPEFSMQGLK
The assay can be described thus: ELISA, cyno EpCAM adsorbed on plate, anti-human Fc-HRP.
Source text: as §3

B1: SRP1464-A02 scFv-Fc antibody (Fc fusion)
chain: MEVQLLESGGGLVQPGGSLRLSCAASGFTFGVESMSWVRQAPGKGLEWVGAIDGGDGYTGYADSVKDRFTISRDNSKNTLYLQMNSLRAEDTAVYYCAKAWHPQTYYGVDYWGQGTLVTVSSGGGGSGGGGSGGGGSEIVLTQSPGTLSLSPGERATLSCRASQSVSSSYLAWYQQKPGQAPRLLIYGASSRATGIPDRFSGSGSGTDFTLTISRLEPEDFAVYYCQQTSEAPPTFGQGTKVEIKAAGSDQ[letters of human IgG1 Fc with changes omitted]GSGDYKDDDDKGSGHHHHHH
notes: scFv-Fc format; the entry holds scFv, IgG1 Fc, FLAG and His tags
Consider B1, for which the Kd in assay [1] came to 5.2 nM; in assay [2], 6.7 nM; in assay [3], 2.6 nM; in assay [5], 0.983 nM. Besides, in assay [4], the EC50 came out at 0.009 nM. In assay [5], this molecule showed a koff of 0.000197 s⁻¹. Besides, in assay [5], the kon turned out to be 200000 M⁻¹ s⁻¹.

B2: SRP1464-A08 scFv-Fc antibody (Fc fusion)
chain: MEVQLLESGGGLVQPGGSLRLSCAASGFTFSGSSMSWVRQAPGKGLEWVGAIAGGDGYTGYADSVKGRFTISRDNSKNTLYLQMNSLRAEDTAVYYCAKGWHRQDYYGQDYWGQGTLVTVSSGGGGSGGGGSGGGGSEIVLTQSPGTLSLSPGERATLGCRASQSVSSSYLAWYQQKPGQAPRLLIYGASSRATGIPDRFSGSGSGTDFTLTISRLEPEDFAVYYCQQNQAAPATFGQGTKVEIKAAGSDQ[letters of human IgG1 Fc with changes omitted]GSGDYKDDDDKGSGHHHHHH
notes: as for B1
B2: the Kd was 2.7 nM in assay [1], 3.6 nM in assay [2], 1.2 nM in assay [3] and 0.193 nM in assay [5]. Besides, the EC50 in assay [4] came out at 0.39 nM. The same molecule came in with a koff in assay [5] of 1.74e-05 s⁻¹. Besides, the kon in assay [5] was 90300 M⁻¹ s⁻¹.

B3: SRP1464-B04 scFv-Fc antibody (Fc fusion)
chain: MEVQLLESGGGLVQPGGSLRLSCAASGFTFSGSSMSWVRQAPGKGLEWVGAIDGGEGYTSYADSVKGRFTISRDNSKNTLYLQMNSLRAEDTAVYYCAKGWHPQTLYDLDYWGQGTLVTVSSGGGGSGGGGSGGGGSEIVLTQSPGTLSLSPGERATLSCRASQSVSSSYLAWYQQKPGQAPRLLIYGASSRATGIPDRFSGSGSGTDFTLTISRLEPEDFAVYYCQQLVTSPPTFGQGTKVEIKAAGSDQ[letters of human IgG1 Fc with changes omitted]GSGDYKDDDDKGSGHHHHHH
notes: as for B1
Consider B3, for which the Kd in assay [1] stood at 7.6 nM; in assay [2], 6.9 nM; in assay [3], 2 nM; in assay [5], 3.93 nM. Moreover, the EC50 in assay [6] worked out at 16.2 nM; in assay [4], 0.39 nM. The molecule also returned a koff in assay [5] of 0.000256 s⁻¹. This molecule also returned a kon in assay [5] of 65200 M⁻¹ s⁻¹.
